Reference: PMC10215715
These are yes or no findings as the source states them, for the method shown. Binding seen in cells or lysates may run through a third protein. Some binding calls cover weakened binding; strength is not graded here.

Amino acid sequences for entries named in this document (tags omitted). A change or cut given only in a name is not applied to a line headed by its entry.
UniProt Q9Z148: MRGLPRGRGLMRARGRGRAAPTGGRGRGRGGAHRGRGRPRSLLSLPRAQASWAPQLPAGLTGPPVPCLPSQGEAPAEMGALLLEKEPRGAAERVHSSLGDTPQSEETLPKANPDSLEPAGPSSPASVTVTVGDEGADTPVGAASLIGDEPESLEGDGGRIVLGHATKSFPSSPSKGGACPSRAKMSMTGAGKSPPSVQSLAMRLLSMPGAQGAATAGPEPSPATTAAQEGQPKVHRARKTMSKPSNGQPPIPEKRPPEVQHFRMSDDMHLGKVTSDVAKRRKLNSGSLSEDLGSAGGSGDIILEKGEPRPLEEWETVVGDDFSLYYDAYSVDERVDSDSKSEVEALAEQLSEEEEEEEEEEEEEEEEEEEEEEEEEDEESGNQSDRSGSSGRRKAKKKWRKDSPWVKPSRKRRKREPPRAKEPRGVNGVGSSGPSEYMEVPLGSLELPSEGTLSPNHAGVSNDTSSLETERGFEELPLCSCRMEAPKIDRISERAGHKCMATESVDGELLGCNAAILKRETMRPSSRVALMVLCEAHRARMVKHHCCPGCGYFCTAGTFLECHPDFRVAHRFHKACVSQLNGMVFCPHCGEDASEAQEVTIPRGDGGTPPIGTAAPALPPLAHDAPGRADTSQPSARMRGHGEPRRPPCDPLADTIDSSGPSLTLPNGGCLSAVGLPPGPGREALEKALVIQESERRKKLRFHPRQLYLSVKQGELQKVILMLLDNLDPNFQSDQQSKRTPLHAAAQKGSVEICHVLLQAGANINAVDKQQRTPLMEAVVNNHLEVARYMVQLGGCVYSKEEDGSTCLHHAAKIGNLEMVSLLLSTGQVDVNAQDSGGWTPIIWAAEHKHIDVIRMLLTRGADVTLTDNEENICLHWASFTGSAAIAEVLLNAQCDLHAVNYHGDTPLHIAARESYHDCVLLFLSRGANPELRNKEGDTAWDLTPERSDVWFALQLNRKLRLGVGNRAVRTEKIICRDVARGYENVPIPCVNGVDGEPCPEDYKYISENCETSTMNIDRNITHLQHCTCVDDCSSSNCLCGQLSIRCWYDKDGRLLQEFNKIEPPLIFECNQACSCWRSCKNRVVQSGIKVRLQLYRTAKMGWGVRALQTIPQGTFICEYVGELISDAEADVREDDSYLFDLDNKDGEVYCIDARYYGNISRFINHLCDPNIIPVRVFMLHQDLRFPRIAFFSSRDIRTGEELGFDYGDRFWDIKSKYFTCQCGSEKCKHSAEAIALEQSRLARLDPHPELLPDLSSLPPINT
UniProt Q5DW34: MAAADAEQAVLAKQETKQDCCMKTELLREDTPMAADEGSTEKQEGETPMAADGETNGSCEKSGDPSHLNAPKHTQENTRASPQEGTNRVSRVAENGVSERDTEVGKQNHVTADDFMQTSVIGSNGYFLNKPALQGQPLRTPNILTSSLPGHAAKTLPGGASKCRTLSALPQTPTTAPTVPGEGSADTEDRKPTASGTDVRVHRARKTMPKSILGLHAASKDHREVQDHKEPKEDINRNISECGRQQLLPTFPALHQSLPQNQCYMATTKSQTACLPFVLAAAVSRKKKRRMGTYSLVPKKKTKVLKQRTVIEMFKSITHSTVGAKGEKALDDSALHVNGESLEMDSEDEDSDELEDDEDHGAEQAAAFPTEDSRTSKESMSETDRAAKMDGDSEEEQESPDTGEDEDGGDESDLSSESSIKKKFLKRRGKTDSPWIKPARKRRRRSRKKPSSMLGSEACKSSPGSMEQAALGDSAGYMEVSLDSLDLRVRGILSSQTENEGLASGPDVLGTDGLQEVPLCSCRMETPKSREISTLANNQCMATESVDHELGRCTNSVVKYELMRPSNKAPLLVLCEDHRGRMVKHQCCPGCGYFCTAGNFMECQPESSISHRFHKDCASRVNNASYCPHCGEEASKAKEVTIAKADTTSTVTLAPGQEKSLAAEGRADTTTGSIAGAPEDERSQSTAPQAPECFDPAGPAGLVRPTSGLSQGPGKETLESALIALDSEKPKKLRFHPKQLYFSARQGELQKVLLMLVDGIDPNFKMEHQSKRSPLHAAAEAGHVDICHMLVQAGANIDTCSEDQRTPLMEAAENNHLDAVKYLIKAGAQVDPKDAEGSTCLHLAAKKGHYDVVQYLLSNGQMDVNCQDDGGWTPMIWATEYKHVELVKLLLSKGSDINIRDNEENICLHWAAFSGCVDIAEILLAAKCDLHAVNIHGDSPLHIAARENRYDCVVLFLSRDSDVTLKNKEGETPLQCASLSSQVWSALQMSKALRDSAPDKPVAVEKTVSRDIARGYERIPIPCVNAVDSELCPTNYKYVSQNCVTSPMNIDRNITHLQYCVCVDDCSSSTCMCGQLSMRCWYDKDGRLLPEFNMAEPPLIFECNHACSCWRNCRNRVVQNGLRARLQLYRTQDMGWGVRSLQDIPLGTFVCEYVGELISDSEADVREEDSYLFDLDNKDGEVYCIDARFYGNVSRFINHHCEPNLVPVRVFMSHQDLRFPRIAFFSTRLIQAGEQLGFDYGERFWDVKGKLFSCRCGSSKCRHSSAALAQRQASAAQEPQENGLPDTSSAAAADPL
UniProt P42230: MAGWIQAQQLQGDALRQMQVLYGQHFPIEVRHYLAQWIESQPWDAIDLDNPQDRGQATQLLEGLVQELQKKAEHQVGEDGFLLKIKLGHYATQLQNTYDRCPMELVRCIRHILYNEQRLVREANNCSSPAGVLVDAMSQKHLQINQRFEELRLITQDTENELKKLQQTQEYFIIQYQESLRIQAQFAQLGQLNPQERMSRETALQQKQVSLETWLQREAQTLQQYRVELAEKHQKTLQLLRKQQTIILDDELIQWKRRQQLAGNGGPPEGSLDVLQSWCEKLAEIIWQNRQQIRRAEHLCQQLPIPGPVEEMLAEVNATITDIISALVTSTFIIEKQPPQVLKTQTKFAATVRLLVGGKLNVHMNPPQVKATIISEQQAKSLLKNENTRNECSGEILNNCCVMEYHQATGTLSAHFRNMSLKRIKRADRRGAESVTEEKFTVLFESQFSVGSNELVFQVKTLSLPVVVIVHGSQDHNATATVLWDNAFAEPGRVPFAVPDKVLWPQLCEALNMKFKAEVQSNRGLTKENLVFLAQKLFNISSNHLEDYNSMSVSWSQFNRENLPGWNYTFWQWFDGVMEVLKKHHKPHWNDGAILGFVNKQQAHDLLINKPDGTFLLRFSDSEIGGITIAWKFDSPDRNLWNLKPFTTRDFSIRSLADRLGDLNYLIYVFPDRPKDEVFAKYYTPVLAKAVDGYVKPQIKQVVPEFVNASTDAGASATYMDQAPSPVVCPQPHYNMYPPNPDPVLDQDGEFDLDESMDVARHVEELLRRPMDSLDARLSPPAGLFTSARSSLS
UniProt Q04207: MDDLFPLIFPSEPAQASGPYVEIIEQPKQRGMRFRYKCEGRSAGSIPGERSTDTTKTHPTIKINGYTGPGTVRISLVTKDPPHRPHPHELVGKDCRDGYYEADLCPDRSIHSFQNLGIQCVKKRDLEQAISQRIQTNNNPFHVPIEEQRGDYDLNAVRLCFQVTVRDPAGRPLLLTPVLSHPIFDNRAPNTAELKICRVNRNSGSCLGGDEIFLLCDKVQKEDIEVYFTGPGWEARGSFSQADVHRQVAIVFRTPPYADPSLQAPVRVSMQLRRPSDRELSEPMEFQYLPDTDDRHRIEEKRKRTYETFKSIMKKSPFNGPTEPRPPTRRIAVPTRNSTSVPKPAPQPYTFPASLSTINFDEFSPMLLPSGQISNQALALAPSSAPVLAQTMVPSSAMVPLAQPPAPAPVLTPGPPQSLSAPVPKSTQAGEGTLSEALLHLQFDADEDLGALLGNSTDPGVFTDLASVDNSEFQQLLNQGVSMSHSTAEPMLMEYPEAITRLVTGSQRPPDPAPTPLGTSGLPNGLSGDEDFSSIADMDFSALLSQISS

How the values were obtained:
[1] = biological target: G9a (euchromatic histone methyltransferase 2; EHMT2) (mouse (endogenous in 3T3-L1)) (UniProt Q9Z148); experiment: co-IP; cytosolic and nuclear extracts (300 μg) of 3T3-L1 adipocytes treated with 0.75 nM TNFα for 30 min; IP with anti-G9a antibody, immunoblot; endogenous proteins
[2] = biological target: G9a (euchromatic histone methyltransferase 2; EHMT2) (mouse (endogenous in 3T3-L1)) (UniProt Q9Z148); experiment: co-IP; cytosolic and nuclear extracts (300 μg) of 3T3-L1 adipocytes treated with vehicle (0.1% BSA/PBS) for 30 min; IP with anti-G9a antibody, immunoblot; endogenous proteins
[3] = biological target: G9a (euchromatic histone methyltransferase 2; EHMT2) (mouse (endogenous in 3T3-L1)) (UniProt Q9Z148); experiment: co-IP; whole-cell extracts (fresh or after one freeze-thaw cycle) of 3T3-L1 adipocytes treated with vehicle or 0.75 nM TNFα for 30 min; IP with anti-G9a antibody, Protein A beads, immunoblot; endogenous proteins
[4] = biological target: G9a-like protein (GLP; euchromatic histone methyltransferase 1; EHMT1) (mouse (endogenous in 3T3-L1)) (UniProt Q5DW34); experiment: co-IP; nuclear extract (300 μg) of 3T3-L1 adipocytes treated with 0.75 nM TNFα for 30 min; IP with anti-GLP antibody, immunoblot; endogenous proteins
[5] = biological target: G9a-like protein (GLP; euchromatic histone methyltransferase 1; EHMT1) (mouse (endogenous in 3T3-L1)) (UniProt Q5DW34); experiment: co-IP; nuclear extract (300 μg) of 3T3-L1 adipocytes treated with vehicle (0.1% BSA/PBS) for 30 min; IP with anti-GLP antibody, immunoblot; endogenous proteins

binding [1]	binding [3]	binding [4]	Substance	binding [2]	binding [5]
no binding	no binding		signal transducer and activator of transcription 5A (STAT5A) (from UniProt P42230 1-793)	no binding	
binds		binds	RelA (p65), the major functional subunit of NF-κB (from UniProt Q04207 1-549)	no binding (condition: vehicle-treated cells (no TNFα))	no binding (condition: vehicle-treated cells (no TNFα))
	binds		G9a-like protein (GLP; euchromatic histone methyltransferase 1; EHMT1) (from UniProt Q5DW34-1 1-1296) (enzyme)		
